From PubChem BioAssay AID504832 (National Center for Advancing Translational Sciences (NCATS), 2011)
Out of some 310,000 compounds screened, about 18,000 (5.8%) were called active. Inconclusive means that the source gave no clear call. Such entries were picked first, then a sample of the others. Calls follow the shape of the dose curve; as a rule, active = well fitted inhibition curve with a large enough effect; inconclusive = small, poorly fitted or top-dose-only effect, or another doubt; inactive = no such curve, though single readings can be large or run the other way. Potencies of inconclusive entries are left out as doubtful fits.

Assay: Primary qHTS for delayed death inhibitors of the malarial parasite plastid, 48 hour incubation
Details: P. falciparum luciferase growth in erythrocytes; series mostly up to 28.7 µM; activity change, negative = inhibition: at the top concentration
How it was run: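 First compound was added to culture medium, then infected red cells at 0.1% parasitemia and 2% hematocrit (final). After incubation at 37 C under 5% CO2, luciferase detection reagent was dispensed and light output recorded.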
% is scaled to controls: 0 for no effect and ±100 for the full control effect; potency is read from the fitted curve at half-maximal effect; tags tell the direction and shape of the fitted curve.

| Structure (SMILES) | activity change, negative = inhibition | Potency |
| --- | --- | --- |
| O=C(NCc1cccnc1)c1cc2nc(-c3cccs3)cc(C(F)(F)Cl)n2n1 | inactive: -9.89% | – |
| O=c1[nH]c(=O)n(Cc2ccc(F)cc2)c(O)c1C=NCc1cccnc1 | – | inconclusive [inhibitor, full curve, poor fit] |
| COc1cc(/C=C/c2cc[n+](C)cc2)ccc1OCC(=O)Nc1ccc(Cl)c(Cl)c1 | – | inconclusive [inhibitor, full curve, poor fit] |
| COc1ccccc1NC(=O)CN1CCN(CC(=O)Nc2ccc3c(c2)OCCO3)CC1 | – | inconclusive [inhibitor, single point] |
| O=C(c1cccc(S(=O)(=O)N2CCN(c3ccccc3)CC2)c1)N1CCCC(C(F)(F)F)C1 (configuration not stated) | – | inconclusive [inhibitor, single point] |
| CC1=[N+](C)c2ccc3ccccc3c2C1(C)C | – | inconclusive [inhibitor, partial curve, poor fit] |
| Cc1cc(Cl)ccc1NC(=S)NCc1ccccc1 | inactive: -7.3% | – |
| CCOC(=O)N1CCN(C(=O)CSC2=NS(=O)(=O)c3cc(Cl)ccc3N2)CC1 | – | inconclusive [inhibitor, partial curve, poor fit] |
| Cc1ccc[n+](CC(O)Cn2c3ccccc3c3ccccc32)c1 (configuration not stated) | – | inconclusive [inhibitor, partial curve, poor fit] |
| CC(C)CCN1CCN(Cc2cnc(N3CCCC3)s2)CC1CCO (configuration not stated) | inactive: -6.02% | – |
| Cc1ccc(C)c(N(C(=O)CCC(=O)Nc2cc(C)on2)C(C(=O)NC2CCCC2)c2ccco2)c1 (configuration not stated) | – | inconclusive [inhibitor, partial curve, poor fit] |
| COC(=O)C1=CN(C(C)C)C=C(C(=O)OC)C1c1cc2c(cc1Br)OCO2 | – | inconclusive [inhibitor, partial curve] |
| CCOC(=O)C1=C(O)C(Nc2nccs2)(C(F)(F)F)N=C1C (configuration not stated) | inactive: -5.42% | – |
| O=[N+]([O-])c1ccc(N=Nc2ncc[nH]2)cc1 | – | inconclusive [inhibitor, single point] |
| COc1ccc(NC(=O)CN2CCC(C(=O)c3ccc(F)cc3)CC2)c(OC)c1 | inactive: -16% | – |
| O=C(O)CC(C(=O)O)N1C(=O)/C(=C/c2ccc(-c3nc4ccccc4s3)o2)SC1=S (configuration not stated) | – | inconclusive [inhibitor, single point] |
| Oc1cccc(C(O)CNCc2ccc(-c3ccccc3)cc2)c1 (configuration not stated) | inactive: -27.9% | – |
| NS(=O)(=O)c1ccc(CCNC(=O)c2ccc(C#CC3(O)CCCCC3)cc2)cc1 | inactive: 0% | – |
| COc1ccccc1OCC(=O)NCCCN1CCOCC1 | inactive: 12% | – |
| O=C(O)c1ccc(OC(F)(F)C(F)C(F)(F)F)cc1 (configuration not stated) | – | inconclusive [inhibitor, partial curve, poor fit] |
| COc1ccc(NC(=O)Nc2cc(C)ccc2OC(F)F)c(OC)c1 | – | inconclusive [inhibitor, single point] |
| Cc1ccc(CNC(=O)CN(C)S(=O)(=O)c2cccs2)cc1 | inactive: 17.2% | – |
| Cc1ccc2oc(-c3cccc(NC(=O)/C=C/c4cccc([N+](=O)[O-])c4)c3C)nc2c1 | – | inconclusive [inhibitor, single point] |
| CC(c1ccccn1)N(C)C(=O)c1ccc2nc(Cc3cccc(Cl)c3)oc2c1 (configuration not stated) | inactive: 14% | – |

| Structure (SMILES) | activity change, negative = inhibition | Potency |
| --- | --- | --- |
| CCOc1cc(NC(=S)NCCCN2CCOCC2)c(OCC)cc1NC(=O)C(C)C | inactive: 14.1% | – |
| CC1CC(C)(C)Nc2ccc(OC(=O)c3ccco3)cc21 (configuration not stated) | – | inconclusive [inhibitor, full curve, poor fit] |
| CN1CCN(c2ccc([N+](=O)[O-])cc2C(=O)c2ccc(Br)cc2)CC1 | – | inconclusive [inhibitor, single point] |
| COc1cccc(CNC(=O)C(c2ccc(Cl)cc2)C(C)C)c1 (configuration not stated) | – | active: 9.28 µM |
| COc1cccc(/C=N/NC(=O)CNC(=O)COc2ccccc2)c1O | – | inconclusive [inhibitor, single point] |
| CCn1c(C)[n+](CCOC(C)=O)c2cc(Cl)c(Cl)cc21 | – | active: 2.33 µM |
| O=C(Nc1ccc(OC(F)F)c(Cl)c1)c1ccccn1 | inactive: 186% | – |
| Nc1c(Cl)ncnc1N/N=C/c1ccccn1 | – | active: 2.08 µM |
| COc1ccccc1NS(=O)(=O)c1cccc(C(=O)NNC(=O)c2ccc(O)c(Cl)c2)c1 | inactive: -5.04% | – |
| CCOc1ccc(NS(=O)(=O)c2ccc(OCC(=O)NCCCOC)cc2)cc1 | – | inconclusive [inhibitor, single point] |
| Clc1ccccc1-c1nn2c(COc3ccccc3)nnc2s1 | – | inconclusive [inhibitor, single point] |
| COc1ccc(C(=O)N(C)Cc2cnn(Cc3ccccc3)c2)cc1S(=O)(=O)N1CCOCC1 | – | inconclusive [inhibitor, single point] |
| Cc1ccc2nc(Nc3nc(-c4ccccc4)cc(=O)[nH]3)nc(C)c2c1 | – | inconclusive [inhibitor, partial curve] |
| Cc1ccc2c(c1)c1c(n2CC(O)Cn2c(C)nc3ccccc32)C(=O)CCC1 (configuration not stated) | – | active: 14.7 µM |
| CCCNC(=O)c1cccc(Br)c1 | inactive: 20.4% | – |
| CCCC(=O)NC(c1ccccc1Cl)c1c(O)ccc2ccccc12 (configuration not stated) | – | active: 10.4 µM |
| COc1ccc(Cl)cc1C(=O)N1CCC2(CC1)CC(=O)c1ccccc1O2 | – | inconclusive [inhibitor, partial curve, poor fit] |
| CCCCNC(=O)C(CC)Sc1nc2sc(C(=O)OC)c(C)c2c(=O)n1N (configuration not stated) | – | inconclusive [inhibitor, partial curve, poor fit] |
| CCN(CC)C(=O)c1ccc(NC(=O)CCCSc2ccccc2)cc1 | – | inconclusive [inhibitor, single point] |
| O=C(c1cnccn1)N(Cc1cccs1)C1(C(=O)NC2CCCC2)CCCCC1 | – | inconclusive [inhibitor, partial curve, poor fit] |
| Cc1ccccc1CN1C(=O)c2ccccc2S(=O)c2ccc(C(=O)NCCCN3CCOCC3)cc21 (configuration not stated) | – | inconclusive [inhibitor, partial curve] |
| COc1cccc(OCC(=O)N2CCC3(CC2)CC(=O)c2ccccc2O3)c1 | – | inconclusive [inhibitor, partial curve, poor fit] |
| CC1CCCC(NC(=O)CSC2CCCCC2)C1C (configuration not stated) | – | inconclusive [inhibitor, single point] |
| Cn1cccc1C(=O)NCc1ccc(S(N)(=O)=O)cc1 | inactive: 3.69% | – |

| Structure (SMILES) | activity change, negative = inhibition | Potency |
| --- | --- | --- |
| CCCCC(CCC(=O)Nc1nccs1)C(=O)O (configuration not stated) | inactive: 4.56% | – |
| CC(=O)Nc1ccc(C(=O)CSc2nnnn2C2CCCC2)cc1 | inactive: 6.78% | – |
| CN(CCCNC(=O)c1cccc(N2CCCC2=O)c1)c1ccccc1 | – | inconclusive [inhibitor, partial curve, poor fit] |
| CCOc1cccc2cc(-c3nnc(NCc4ccco4)s3)c(=O)oc12 | inactive: 24.5% | – |
| CN(C)S(=O)(=O)c1cccc(NC(=O)c2ccc(COc3ccccc3)cc2)c1 | – | inconclusive [inhibitor, single point] |
| O=[N+]([O-])c1cc(/C=N/Nc2nc3ccccc3[nH]2)c(O)cc1O | – | active: 2.08 µM |
| COC(=O)C1=C(c2ccc(F)cc2OCc2ccccc2)C[C@@H]2CC[C@H]1N2C(=O)NCc1ccccc1Cl | – | active: 5.22 µM |
| Cc1ccc(NC(NC(=O)c2cccs2)C(Cl)(Cl)Cl)cc1 (configuration not stated) | – | inconclusive [inhibitor, single point] |
| O=C1OC2(O)C3C4C=CC(C4)C3C(=O)N2c2ccccc21 (configuration not stated) | – | active: 2.33 µM |
| O=C(COC(=O)c1ccccc1[N+](=O)[O-])Nc1nnc(-c2ccccc2)o1 | inactive: -2.33% | – |
| Cc1ccc(NC(=O)C2CCN(S(=O)(=O)c3ccc4c(c3)NC(=O)C(C)S4)CC2)cc1Cl (configuration not stated) | – | active: 13.1 µM |
| O=C(CSc1nnnn1-c1ccccc1)NC(=O)Cc1ccccc1 | – | inconclusive [inhibitor, partial curve] |
| O=C(/C=C/c1cn(-c2ccccc2)nc1-c1cccs1)NCCN1CCOCC1 | – | inconclusive [inhibitor, single point] |
| COC(=O)c1cnn(-c2ccccc2)c1N | inactive: 22.7% | – |
| Cc1ccc(NC(=S)c2ccc3ccccc3n2)c(C)c1 | inactive: 103% | – |
| COc1ccc(C(NC(=O)c2ccc(=O)[nH]c2)C(=O)Nc2ccc(C(C)C)cc2)cc1 (configuration not stated) | – | inconclusive [inhibitor, partial curve, poor fit] |
| COc1ccc(-c2cc(C(F)(F)F)n3nc(C(=O)NCc4ccco4)cc3n2)cc1 | – | active: 9.28 µM |
| CC(=O)Nc1cccc(NC(=O)CS(=O)(=O)c2cn(CC(=O)N(C(C)C)C(C)C)c3ccccc23)c1 | – | inconclusive [inhibitor, partial curve] |
| C[C@@H](C(=O)NCCc1ccc(F)cc1)N1C(=O)N2CCc3c([nH]c4ccccc34)[C@@]2(C)C1=O | – | inconclusive [inhibitor, partial curve, poor fit] |
| CCOc1cc(C(=O)OCc2cccc(OC)c2OC)ccc1OCC(=O)N1CCOCC1 | – | inconclusive [inhibitor, partial curve, poor fit] |
| O=C(Nc1ccc(Cl)cc1)Nc1nnc(SCc2ccccc2)s1 | inactive: 11.6% | – |
| COc1ccc(CC(=O)OCC(=O)Nc2ccc(F)cc2)cc1 | inactive: 19.8% | – |
| CN(C)c1ccc(/C=C2\SC(=O)N(CCc3nnc(N)s3)C2=O)cc1 | inactive: -13.7% | – |
| CC(=O)c1ccc(N2CCC(c3cc(-c4ccc(Cl)cc4Cl)n[nH]3)CC2)c([N+](=O)[O-])c1 | – | inconclusive [inhibitor, single point] |
